We go through 57 compounds from publication PMC4336329 (PLoS ONE, 2015).

SMILES strings stand for the structures. In all, about 310,000 compounds went through this assay and about 2,200 (0.71%) showed an effect of 50% or more. The effect is printed as a negative number. The list shows a part of the results.

For the assay, the target named is human ether-à-go-go-related gene (hERG) potassium channel (human, UniProt Q12809). Put plainly: primary screen, population patch clamp on CHO cells stably expressing hERG.
Chain of human ether-à-go-go-related gene (hERG) potassium channel (Q12809 whole entry, looked up): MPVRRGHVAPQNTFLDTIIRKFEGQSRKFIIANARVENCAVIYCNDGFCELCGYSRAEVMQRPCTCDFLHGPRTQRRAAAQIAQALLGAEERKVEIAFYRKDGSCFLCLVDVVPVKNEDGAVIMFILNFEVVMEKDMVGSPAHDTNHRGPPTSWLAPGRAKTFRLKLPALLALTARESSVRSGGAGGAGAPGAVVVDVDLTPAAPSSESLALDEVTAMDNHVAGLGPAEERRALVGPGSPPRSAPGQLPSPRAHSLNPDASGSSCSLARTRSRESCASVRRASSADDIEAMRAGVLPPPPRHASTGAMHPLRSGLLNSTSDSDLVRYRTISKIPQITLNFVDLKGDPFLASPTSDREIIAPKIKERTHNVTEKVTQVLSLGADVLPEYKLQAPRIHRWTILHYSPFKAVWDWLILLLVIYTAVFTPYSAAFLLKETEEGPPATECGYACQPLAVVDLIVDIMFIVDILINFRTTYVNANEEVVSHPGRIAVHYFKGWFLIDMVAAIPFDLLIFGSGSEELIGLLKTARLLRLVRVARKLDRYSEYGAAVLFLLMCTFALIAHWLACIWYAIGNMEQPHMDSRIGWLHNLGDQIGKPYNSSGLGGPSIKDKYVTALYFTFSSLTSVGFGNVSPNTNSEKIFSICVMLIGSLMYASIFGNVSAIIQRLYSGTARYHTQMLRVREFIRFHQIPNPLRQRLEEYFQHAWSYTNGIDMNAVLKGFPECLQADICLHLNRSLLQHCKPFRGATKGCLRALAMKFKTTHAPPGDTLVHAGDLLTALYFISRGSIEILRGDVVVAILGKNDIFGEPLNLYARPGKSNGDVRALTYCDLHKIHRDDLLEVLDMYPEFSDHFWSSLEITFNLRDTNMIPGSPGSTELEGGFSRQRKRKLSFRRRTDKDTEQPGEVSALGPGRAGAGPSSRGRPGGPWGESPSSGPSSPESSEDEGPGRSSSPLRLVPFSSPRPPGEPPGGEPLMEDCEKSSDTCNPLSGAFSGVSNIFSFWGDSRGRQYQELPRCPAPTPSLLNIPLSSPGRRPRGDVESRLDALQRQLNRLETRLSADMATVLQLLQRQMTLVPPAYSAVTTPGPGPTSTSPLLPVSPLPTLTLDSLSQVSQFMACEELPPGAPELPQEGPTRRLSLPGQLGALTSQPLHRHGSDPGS
Take `O=C1C(=O)N(Cc2cccnc2)C(c2cccc(Br)c2)/C1=C(/O)c1ccc2c(c1)OCO2` (stereo not drawn): the “hERG current change (%, negative = inhibition) at 1uM” value is given as 4.82%.

As to `CCNc1nc2c(c(=O)n(C)c(=O)n2C)n1Cc1ccc(Cl)cc1`, the “hERG current change (%, negative = inhibition) at 1uM” value was 3.75%.

For `COc1ccc(C2(C(=O)O)CCCC2)cc1`, the “hERG current change (%, negative = inhibition) at 1uM” value is recorded as 8.89%.

`COc1cc2oc3ccc(C#Cc4ccccn4)cc3c(=O)c2cc1OC`: the “hERG current change (%, negative = inhibition) at 1uM” value is recorded as 11.8%.

With `O=C(COc1ccc(F)cc1Br)N1CCc2ccccc21`, the “hERG current change (%, negative = inhibition) at 1uM” value was found to be 12.6%.

Regarding `O=C(/C=C/c1cccs1)N1CCN(c2ccccc2)CC1`, the “hERG current change (%, negative = inhibition) at 1uM” value turned out to be 12.4%.

With `CCCCC(=O)Nc1c2c(nn1-c1cccc(C)c1C)CS(=O)(=O)C2`, the “hERG current change (%, negative = inhibition) at 1uM” value stood at 7.74%.

With `CC(=O)C1=C(C)N(Cc2ccccc2)C(=O)N[C@H]1CCc1ccccc1`, the “hERG current change (%, negative = inhibition) at 1uM” value was determined as 7.2%.

On to `O=C(N/C(=C/c1cccnc1)C(=O)N1CCOCC1)c1ccccc1`, for which the “hERG current change (%, negative = inhibition) at 1uM” value is recorded as 11%.

For the compound `O=C(NCc1ccccn1)c1cc(Cl)ccc1OCc1ccccc1`, the “hERG current change (%, negative = inhibition) at 1uM” value is 4.33%.

On to `COc1ccc(NC(=O)Cn2cccc2)cc1Cl`, for which the “hERG current change (%, negative = inhibition) at 1uM” value was 5.11%.

Consider `O=C(/C=C/Nc1ccccc1)c1ccccc1`, for which the “hERG current change (%, negative = inhibition) at 1uM” value was found to be 9.71%.

Consider `COC(=O)CNC(=O)CSc1nnc2cc(C)c3ccccc3n12`, for which the “hERG current change (%, negative = inhibition) at 1uM” value is -0.382%.

Take `CCOC(=O)C1CCN(S(=O)(=O)c2ccc(OCC(=O)OC)cc2)CC1`: the “hERG current change (%, negative = inhibition) at 1uM” value is 1.35%.

With `COc1ccccc1NC(=O)NC1CCCc2ccccc21` (stereo not drawn), the “hERG current change (%, negative = inhibition) at 1uM” value is recorded as 1.78%.

Regarding `CN(C)CCNC(=O)Nc1ccc(Cl)c(Cl)c1`, the “hERG current change (%, negative = inhibition) at 1uM” value is -7.74%.

Turning to `O=C(Nc1ccccc1)N(c1ccccc1)C1C=CS(=O)(=O)C1` (stereo not drawn), the “hERG current change (%, negative = inhibition) at 1uM” value stood at 15.5%.

On to `Cc1ccccc1NC(=O)CC1SC(=O)N(c2ccccc2)C1=O` (stereo not drawn), for which the “hERG current change (%, negative = inhibition) at 1uM” value stood at 12.4%.

Turning to `CCCC1=NN2C(=N)/C(=C\c3cc(C)n(-c4cc(C)cc(C)c4)c3C)C(=O)N=C2S1`, the “hERG current change (%, negative = inhibition) at 1uM” value is reported as 1.66%.

For `COc1ccccc1NC(=O)CCN1C(=O)c2ccccc2S1(=O)=O`, the “hERG current change (%, negative = inhibition) at 1uM” value turned out to be 4.45%.

On to `CSc1ccc(/C=N/Nc2nc(C)cc(=O)[nH]2)cc1`, for which the “hERG current change (%, negative = inhibition) at 1uM” value is listed as -17.9%.

As for `Cc1ccc(OC(=O)c2sc3ncn(C)c(=O)c3c2C)cc1`, the “hERG current change (%, negative = inhibition) at 1uM” value came to 0.317%.

For `Cc1cc(NC(=O)c2ccco2)ncc1NC(=O)Cc1ccccc1`, the “hERG current change (%, negative = inhibition) at 1uM” value is on record as 5.29%.

Consider `CC[C@@]1(c2ccccc2OC)ON(c2ccccc2C(F)(F)F)C1=O`, for which the “hERG current change (%, negative = inhibition) at 1uM” value amounted to 8.31%.

Turning to `CCOc1ccc(Nc2nc(NCc3ccco3)nc(N)c2[N+](=O)[O-])cc1`, the “hERG current change (%, negative = inhibition) at 1uM” value is on record as 8.43%.

On to `C1COCCO1.O=C(Nc1nc(-c2ccc(S(=O)(=O)N3CCOCC3)cc2)cs1)c1ccccc1`, for which the “hERG current change (%, negative = inhibition) at 1uM” value is given as 7.55%.

Regarding `CCOC(=O)N1CCN(S(=O)(=O)c2ccc3[nH]c(=O)sc3c2)CC1`, the “hERG current change (%, negative = inhibition) at 1uM” value was found to be 11.8%.

Turning to `CSCCC1NC(=O)N(CC(=O)Nc2ccc(Br)cc2Br)C1=O` (stereo not drawn), the “hERG current change (%, negative = inhibition) at 1uM” value came to 0.132%.

Take `O=C(c1ccco1)N1CCN(C(=O)C(Sc2ccccc2)c2ccccc2)CC1` (stereo not drawn): the “hERG current change (%, negative = inhibition) at 1uM” value is on record as -9.11%.

`COc1ccc(N2C(=O)CSCC2=O)cc1OC`: the “hERG current change (%, negative = inhibition) at 1uM” value amounted to 11.1%.

As to `COc1ccc(NC(=O)c2ccc3c(c2)C(=O)N(CC2CCCO2)C3=O)cc1O` (stereo not drawn), the “hERG current change (%, negative = inhibition) at 1uM” value is -0.122%.

`COc1ccc(OCC(=O)N/N=C/c2ccc(OC)c(OC)c2C(=O)O)cc1`: the “hERG current change (%, negative = inhibition) at 1uM” value worked out at 7.14%.

Consider `Cc1nc(NC(=O)C2CC2)sc1C(=O)Nc1ccccc1`, for which the “hERG current change (%, negative = inhibition) at 1uM” value was found to be 11.6%.

In the case of `COc1cc(NC(=S)NC(=O)C(C)C)ccc1NC(=O)c1cc2ccccc2o1`, the “hERG current change (%, negative = inhibition) at 1uM” value is 5.69%.

As for `CC(C)CC(CO)N1CCN(C(=O)c2cccc(C(F)(F)F)c2)CCC1=O` (stereo not drawn), the “hERG current change (%, negative = inhibition) at 1uM” value amounted to 11.8%.

As to `COc1ccc(NC(=O)c2ccc(-n3nc(C)c[n+]3[O-])cc2)cc1`, the “hERG current change (%, negative = inhibition) at 1uM” value stood at 7.94%.

Consider `CCC(C(=O)Nc1sc(C(N)=O)c(C)c1C(=O)OC)c1ccccc1` (stereo not drawn), for which the “hERG current change (%, negative = inhibition) at 1uM” value came to 2.21%.

In the case of `CCOC(=O)C1CCN(CC(O)COCc2cccs2)CC1` (stereo not drawn), the “hERG current change (%, negative = inhibition) at 1uM” value was -23.6%.

Consider `CCC1(c2ccc(F)cc2)NC(=O)N(CC(=O)NCc2ccc(C)cc2)C1=O` (stereo not drawn), for which the “hERG current change (%, negative = inhibition) at 1uM” value amounted to 10.2%.

Turning to `COc1ccc(C2CC(O)(C(C)(C)O)NO2)cc1` (stereo not drawn), the “hERG current change (%, negative = inhibition) at 1uM” value is 10.8%.

As to `CC(C)CN1C(=O)C(=O)N(CC(=O)c2ccc3c(c2)OCO3)C1=O`, the “hERG current change (%, negative = inhibition) at 1uM” value stood at 2.78%.

For the compound `CC(C)(C)C(=O)N1CCN(c2nc3ccccc3o2)CC1`, the “hERG current change (%, negative = inhibition) at 1uM” value is recorded as 3.91%.

With `COc1cccc(CC(NC(C)=O)C(=O)NC2CCN(C(=O)C3CC3)CC2)c1OC` (stereo not drawn), the “hERG current change (%, negative = inhibition) at 1uM” value is on record as 18.9%.

In the case of `O=C(CN1C(=O)C2CCCCC2C1=O)Nc1ccc(S(=O)(=O)Nc2ncccn2)cc1` (stereo not drawn), the “hERG current change (%, negative = inhibition) at 1uM” value is reported as 21.8%.

On to `CS(=O)(=O)N(CC(=O)N/N=C/c1cc([N+](=O)[O-])ccc1Cl)c1ccccc1`, for which the “hERG current change (%, negative = inhibition) at 1uM” value came out at 11.5%.

`O=C(O)/C(=C\c1ccccc1)c1ccc2ccccc2c1`: the “hERG current change (%, negative = inhibition) at 1uM” value worked out at 9.78%.

In the case of `C=CCn1c(=S)[nH]c2sccc2c1=O`, the “hERG current change (%, negative = inhibition) at 1uM” value is on record as 15%.

With `Cc1ccccc1C(=O)N1CCC(C(=O)Nc2ccc(F)cc2)CC1`, the “hERG current change (%, negative = inhibition) at 1uM” value is 8.49%.

For the compound `CC(=O)C[C@H]1c2ccccc2S(=O)(=O)N1C1CCCCC1`, the “hERG current change (%, negative = inhibition) at 1uM” value is on record as 3.92%.

For `Cc1ccsc1C(=O)C1CCCN(Cc2cccn2-c2ccc(Cl)cn2)C1` (stereo not drawn), the “hERG current change (%, negative = inhibition) at 1uM” value is reported as -84.3%.

`CC(=O)Nc1ccc(NC(=O)c2ccccc2N(C)S(=O)(=O)c2ccc(C)cc2)cc1`: the “hERG current change (%, negative = inhibition) at 1uM” value is given as 11%.

With `Cc1cc(C)cc(OCC(=O)O/N=C(\N)c2ccccc2Cl)c1`, the “hERG current change (%, negative = inhibition) at 1uM” value worked out at 2.43%.

As to `Cl.NCCCC[C@H](NC(=O)C1CCNCC1)c1nnc([C@@H](N)CO)o1`, the “hERG current change (%, negative = inhibition) at 1uM” value is recorded as 10.8%.

For `Cc1ccccc1N(CC(=O)NC1CCCC1)C(=O)CS(=O)CC(=O)Nc1ccc2c(c1)OCO2` (stereo not drawn), the “hERG current change (%, negative = inhibition) at 1uM” value was 2.44%.

As for `C(=N\Nc1nc2ccccc2[nH]1)/c1cccc2nccnc12`, the “hERG current change (%, negative = inhibition) at 1uM” value worked out at 3.06%.

For `CCc1cccc(C)c1NC(=O)CSc1nnc(-c2ccco2)n1N`, the “hERG current change (%, negative = inhibition) at 1uM” value came out at 3.97%.

Take `Cc1ccc(C)c(C(=O)C(C)OC(=O)CN2C(=O)NC3(CC(C)CC(C)(C)C3)C2=O)c1` (stereo not drawn): the “hERG current change (%, negative = inhibition) at 1uM” value turned out to be 21.3%.
